Test results as given in paper PMC6555819.
The list shows a part of the results.

What follows are sequences tested against T1, LXRb (Homo sapiens) (UniProt P55055). Details: 270 nM, no RXRa, PBS pH 7.4, 2% milk, 0.02% Triton X-100, 1 mM DTT, BSA, 0.4 mg/ml salmon testes DNA; double strand, one strand shown.
T1 sequence: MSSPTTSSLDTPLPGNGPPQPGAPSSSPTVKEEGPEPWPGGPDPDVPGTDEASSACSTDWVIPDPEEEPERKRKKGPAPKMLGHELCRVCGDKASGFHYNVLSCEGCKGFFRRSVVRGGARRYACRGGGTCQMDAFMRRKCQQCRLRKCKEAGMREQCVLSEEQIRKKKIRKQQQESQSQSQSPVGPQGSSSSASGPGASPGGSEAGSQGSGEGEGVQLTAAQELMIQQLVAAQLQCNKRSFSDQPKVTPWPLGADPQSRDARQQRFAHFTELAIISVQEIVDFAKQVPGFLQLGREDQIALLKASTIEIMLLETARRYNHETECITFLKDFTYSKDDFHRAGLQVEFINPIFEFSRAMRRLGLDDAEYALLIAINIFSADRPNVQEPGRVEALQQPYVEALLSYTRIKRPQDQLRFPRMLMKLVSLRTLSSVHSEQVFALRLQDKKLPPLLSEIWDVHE

Sequence	binding signal (PBM z-score against 500 random probes)
GCCAATGCCAGCTACCAGGAGGCTGAGGTGTGAGAGGCGATTGACAGCGTAGAATGAAGG	-0.59
GCTTTCAAGGCAGTAAGAGTTTGCTGTGCATCAGCTGCGATTGACAGCGTAGAATGAAGG	-0.92
GCAAACACAAAGTTTGGGCTGCCTTCTCTAGAGATTGCGATTGACAGCGTAGAATGAAGG	0.13
GCTCCCTGCCAGCCCTGGTCTGAAGCAAGCCTAGAGGCGATTGACAGCGTAGAATGAAGG	-0.81
GCCCGAGTAGGTTATGAGGGGGCATTCAGTGCGAATGCGATTGACAGCGTAGAATGAAGG	9.2
GCATCTGCATAGAGCTAGAGCTATTGATTCAAAGAGGCGATTGACAGCGTAGAATGAAGG	-1.12
GCCAAAGACAGCTTTGCAAGGCCACTTCTGTTTGCTGCGATTGACAGCGTAGAATGAAGG	-0.08
GCCAAGAATCAGACTCTTAAGTAGATGCCTGTAGCTGCGATTGACAGCGTAGAATGAAGG	-0.28
GCCCGAGTAGGTTACGAGGGGGGATTCAGTGCGAATGCGATTGACAGCGTAGAATGAAGG	11.9
GCATGTCAATGGTAGTTTGATGGGAATAGTATTGAGGCGATTGACAGCGTAGAATGAAGG	0.24
GCCCGAGTAGGTTACGGGGGGGCATTCAGTGCGAATGCGATTGACAGCGTAGAATGAAGG	14.1
GCCTATGTAGGTTAAGGGGGGCATTCAGTTTGAAAGGCGATTGACAGCGTAGAATGAAGG	14.1
GCTCGAGTAGGTTACGGGGGGATTCAGGGATGAAGAGCGATTGACAGCGTAGAATGAAGG	14.4
GCACTACTACTGCTGTTGAGAAACCTGCATTGTGGCGCGATTGACAGCGTAGAATGAAGG	0.49
GCATTTGAGATCTCAGTTTCTGCATACTGAATCACCGCGATTGACAGCGTAGAATGAAGG	0.37
GCTGGAAGATGAAGAAGAACTATTGCTCGATGGAGAGCGATTGACAGCGTAGAATGAAGG	-0.4
GCCCAATGCAAGGGCAGCAAGGGCAGGACCAGTGCAGCGATTGACAGCGTAGAATGAAGG	-1
GCGGTGGCACACGCATGGAATCCCAGCGCTTTGGGAGCGATTGACAGCGTAGAATGAAGG	-1.24
GCGAAGGAAGGAAGGAAGGAAGGAAGGAAGGAAGGCGCGATTGACAGCGTAGAATGAAGG	-0.35
GCTCCCAGCCACTCAGGAGGCTGAGGCAGGAGAATTGCGATTGACAGCGTAGAATGAAGG	-2.09
GCTCTAGTAGGTTACGGGGGCATTCAGGGATGAAGAGCGATTGACAGCGTAGAATGAAGG	12.2
GCGAGGTTGCAGTGAGCCAAGATTGCACCACTGCACGCGATTGACAGCGTAGAATGAAGG	-1.36
GCCTATGTAGGTTAGGGGGGTCATTCAGTTTGAAAGGCGATTGACAGCGTAGAATGAAGG	14.1
GCGCCACCAGGCCTGCCTTACAAGAGCTCCTGAAGAGCGATTGACAGCGTAGAATGAAGG	-0.01

Each sequence was assayed against PPARg (Homo sapiens) (UniProt P37231). Details: 180 nM, no RXRa, PBS pH 7.4, 2% milk, 0.02% Triton X-100, 1 mM DTT, BSA, 0.4 mg/ml salmon testes DNA; double strand, one strand shown.
UniProt P37231, sequence (P37231 29-505): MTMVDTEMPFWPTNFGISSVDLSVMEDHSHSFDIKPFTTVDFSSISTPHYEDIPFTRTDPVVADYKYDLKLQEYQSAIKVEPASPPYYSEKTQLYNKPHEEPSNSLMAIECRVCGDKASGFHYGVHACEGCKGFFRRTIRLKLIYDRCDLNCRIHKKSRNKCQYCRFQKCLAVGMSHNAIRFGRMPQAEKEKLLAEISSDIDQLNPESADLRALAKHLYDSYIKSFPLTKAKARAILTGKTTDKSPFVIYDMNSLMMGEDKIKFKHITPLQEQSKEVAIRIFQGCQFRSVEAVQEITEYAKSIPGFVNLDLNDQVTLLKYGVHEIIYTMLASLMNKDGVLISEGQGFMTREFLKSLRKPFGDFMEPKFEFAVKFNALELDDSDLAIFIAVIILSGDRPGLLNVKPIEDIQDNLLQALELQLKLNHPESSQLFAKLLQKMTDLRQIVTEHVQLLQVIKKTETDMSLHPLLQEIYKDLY

Sequence	binding signal (PBM z-score against 500 random probes)
GCAAGAAACAACAAACTTAGTACCTAGAAACAAGAGGCGATTGACAGCGTAGAATGAAGG	0.24
GCTAGGCTACAAACATGTACACCATGTTACTGCAAGGCGATTGACAGCGTAGAATGAAGG	-0.53
GCTCAAGGAGAAAGACACTCCTTTGAAGCGTTGGAAGCGATTGACAGCGTAGAATGAAGG	-1.24
GCCATGAGGACCTGCAGCGCAATGACCTCCGAGGCAGCGATTGACAGCGTAGAATGAAGG	-0.08
GCTGAGACCTGTCACTCTTAGCCATGCTAGTGGTCAGCGATTGACAGCGTAGAATGAAGG	-0.9
GCAAACTAAGCCAGGTCCTCACCTGTTCTCCGAGGCGCGATTGACAGCGTAGAATGAAGG	-0.37
GCCTGTGGAATCCAACATGCCAAATGCTTGCTTGAGGCGATTGACAGCGTAGAATGAAGG	-0.84
GCACTACATAAGTAATCATCTCCCTCTGCAACTGGGGCGATTGACAGCGTAGAATGAAGG	0.41
GCTGCCACAGAGGATACTGTGACGTTATGCATCACTGCGATTGACAGCGTAGAATGAAGG	-0.29
GCTTAAGGATGGACCATTGGCTAAAGCAATGTCAAAGCGATTGACAGCGTAGAATGAAGG	-0.17
GCGCCAGAGGTGGAATGATATGATATGTCTCTGTGTGCGATTGACAGCGTAGAATGAAGG	-0.76
GCATCCGTTCCTTGGAGGGAGTCTGCAGACTGGCTGGCGATTGACAGCGTAGAATGAAGG	-2.35
GCGAGTTTCAGAGGGAGGAACAGAAACAGATGGATGGCGATTGACAGCGTAGAATGAAGG	0.5
GCGAGATTCCAGATGAGAACTGCTCAGCCAAACTCTGCGATTGACAGCGTAGAATGAAGG	-1.01
GCTGAGTCCCTGCACTAGTCGGTTTGAGCTGCTTGTGCGATTGACAGCGTAGAATGAAGG	-0.65

Each sequence was assayed against T2, THRa (Homo sapiens) (UniProt P10827). Details: 90 nM, no RXRa, PBS pH 7.4, 2% milk, 0.02% Triton X-100, 1 mM DTT, BSA, 0.4 mg/ml salmon testes DNA; double strand, one strand shown.
T2 sequence: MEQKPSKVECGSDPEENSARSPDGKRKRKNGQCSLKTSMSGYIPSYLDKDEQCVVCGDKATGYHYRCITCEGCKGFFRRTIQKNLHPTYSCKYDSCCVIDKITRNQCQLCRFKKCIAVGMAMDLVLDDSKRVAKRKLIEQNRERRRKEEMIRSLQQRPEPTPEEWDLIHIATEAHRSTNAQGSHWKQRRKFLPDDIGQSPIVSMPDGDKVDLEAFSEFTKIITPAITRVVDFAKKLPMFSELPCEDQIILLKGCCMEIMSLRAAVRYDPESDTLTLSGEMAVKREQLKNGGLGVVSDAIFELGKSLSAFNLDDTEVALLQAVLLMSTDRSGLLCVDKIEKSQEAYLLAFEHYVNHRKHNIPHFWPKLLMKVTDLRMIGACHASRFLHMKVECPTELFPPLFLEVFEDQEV

Sequence	binding signal (PBM z-score against 500 random probes)
GCATCTGCATAGAGCTAGAGCTATTGATTCAAAGAGGCGATTGACAGCGTAGAATGAAGG	-1.95
GCATGTCAATGGTAGTTTGATGGGAATAGTATTGAGGCGATTGACAGCGTAGAATGAAGG	-0.03
GCGCCACCAGGCCTGCCTTACAAGAGCTCCTGAAGAGCGATTGACAGCGTAGAATGAAGG	-0.51
